Assay results: the BET-seq Pho4 binding data (Le et al. 2018)
The other results are listed elsewhere or left out. Values were computed here from the reads of four pooled replicates and scatter widely.

target: T1, Pho4 (S. cerevisiae) (UniProt P07270); experiment: relative binding free energy (BET-seq); higher = weaker binding; settings: reference: library average
T1 sequence: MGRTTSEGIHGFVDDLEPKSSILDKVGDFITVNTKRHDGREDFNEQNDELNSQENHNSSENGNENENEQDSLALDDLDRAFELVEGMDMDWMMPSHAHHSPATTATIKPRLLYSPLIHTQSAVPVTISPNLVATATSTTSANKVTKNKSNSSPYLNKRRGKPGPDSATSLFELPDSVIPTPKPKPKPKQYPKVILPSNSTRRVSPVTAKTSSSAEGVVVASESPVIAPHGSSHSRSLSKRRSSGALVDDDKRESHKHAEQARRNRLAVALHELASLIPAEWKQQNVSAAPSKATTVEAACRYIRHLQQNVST

| Sequence | relative binding free energy [kcal/mol] |
| --- | --- |
| CGAGGCACGTGTGGAT | -0.15 |
| TTGTTCACGTGGAATT | 0.33 |
| TGGGGCACGTGGAACT | -0.02 |
| GTTTTCACGTGCTATT | 0.22 |
| GGATGCACGTGACTTG | 0.08 |
| AGCGGCACGTGCGGTA | -0.11 |
| CGTTTCACGTGTGCAT | 0.25 |
| TTGAGCACGTGTGCAG | -0.05 |
| CTTTGCACGTGGAATG | 0.06 |
| TGTTACACGTGATTCG | 0.23 |
| GGTTTCACGTGGTGTC | 0.17 |
| TGGTTCACGTGAGTTA | 0.38 |
| GACTGCACGTGTGTGG | 0.06 |
| TGTTGCACGTGGGGAG | -0.09 |
| GGGTACACGTGTCAGG | 0.13 |
| ATTTTCACGTGGTTAA | 0.24 |
| GGTTCCACGTGGGTCT | -0.01 |
| TAAGACACGTGTAGTT | 0.01 |
| TGGGACACGTGAAAGT | 0.3 |
| GGTGGCACGTGTGTTT | -0.11 |
| TCTGTCACGTGGGAAT | 0.07 |
| TTTTACACGTGATTGC | 0.15 |
| AGGTGCACGTGATTGT | 0.14 |

| Sequence | relative binding free energy [kcal/mol] |
| --- | --- |
| CTGGTCACGTGAGCTG | 0.11 |
| GTTACCACGTGTGAGG | 0.21 |
| TTTGGCACGTGTTGTT | -0.11 |
| TATGGCACGTGGTAAG | -0.14 |
| GTGTTCACGTGAAAAG | 0.44 |
| CGCGTCACGTGGGGGG | 0.02 |
| CTTGTCACGTGGATTG | 0.21 |
| AGTGCCACGTGGCTGG | -0.17 |
| TCGGGCACGTGGGCGG | -0.24 |
| TTTACCACGTGGTTTG | -0.01 |
| GGTAACACGTGGTAGC | 0.03 |
| GGGTGCACGTGGAGGC | -0.03 |
| TGTTTCACGTGTTACG | 0.2 |
| AGATTCACGTGTAGAG | 0.24 |
| AGGTTCACGTGGTTTT | 0.23 |
| TGAGTCACGTGCGGTT | 0.12 |
| CAGGTCACGTGTTAGG | 0.19 |
| TATAACACGTGGGGTT | -0.15 |
| GCAAGCACGTGGTGTG | -0.29 |
| CTGGGCACGTGGCGTT | -0.15 |
| GCGGGCACGTGTAGGT | 0.09 |
| TATGTCACGTGGGATA | 0.03 |
| TCAATCACGTGGGAGT | 0.03 |

| Sequence | relative binding free energy [kcal/mol] |
| --- | --- |
| GTTTGCACGTGCGTTG | 0.08 |
| TGAAGCACGTGGATTG | -0.07 |
| GCGAGCACGTGTGGGA | -0.02 |
| GATTGCACGTGCGAGG | 0.03 |
| TGGTACACGTGAGGCA | 0.28 |
| GTGGACACGTGTGAAA | 0.43 |
| AGGGGCACGTGCGTGT | -0.25 |
| GGTAACACGTGGGTAT | -0.05 |
| GAGTGCACGTGGGGAT | -0.07 |
| CAGTGCACGTGTGGGT | -0.04 |
| TCGGACACGTGGGAAT | 0.09 |
| CGCGTCACGTGGTGGA | 0 |
| AAAAGCACGTGATTGG | 0.02 |
| TACTGCACGTGGGTAG | -0.12 |
| CGTGGCACGTGGCCGT | -0.25 |
| TATTGCACGTGCTAGT | -0.17 |
| GGGGTCACGTGGTCAA | -0.03 |
| GGCAACACGTGTGGGT | 0.05 |
| GGTTACACGTGTGGGC | 0.1 |
| GGTTGCACGTGGCCGA | -0.03 |
| TTGGACACGTGGTTGA | 0.17 |
| GTAGGCACGTGGGTTA | -0.25 |
| CAGGTCACGTGAATTG | 0.2 |

| Sequence | relative binding free energy [kcal/mol] |
| --- | --- |
| TTTTTCACGTGCAGAT | 0.29 |
| AAGGACACGTGTAGTG | -0.09 |
| GGGAGCACGTGTTGTG | 0.01 |
| TGGGGCACGTGAGATA | 0.19 |
| CTGGGCACGTGCATGG | -0.07 |
| GTATGCACGTGTGTAT | 0 |
| ATTTACACGTGTACGT | 0.07 |
| TAAGCCACGTGGGTGT | -0.15 |
| AGTATCACGTGGGGCA | -0.11 |
| CGGGTCACGTGTACGT | 0.18 |
| ATGGTCACGTGTTTGC | 0.1 |
| GTGGTCACGTGGCCTT | 0.1 |
| GTTATCACGTGGGCCT | 0 |
| TTATTCACGTGTCTTA | 0.1 |
| TATTTCACGTGGAGGC | 0.35 |
| GTTATCACGTGGTGGG | 0.15 |
| GGGTTCACGTGTGGAT | 0.49 |
| GGTTCCACGTGTCTTT | 0.22 |
| GTATCCACGTGTTCGT | 0.25 |
| AAATTCACGTGGTGGC | 0.19 |
| TGATGCACGTGAAATA | 0.25 |
| ATGGCCACGTGTATTG | -0.02 |
| TGCAGCACGTGGGTGT | -0.31 |

| Sequence | relative binding free energy [kcal/mol] |
| --- | --- |
| ATGCCCACGTGGGTGT | -0.29 |
| AGTTTCACGTGGAGAG | 0.38 |
| TTTGGCACGTGTGATC | 0.09 |
| CGTTGCACGTGGCAGG | -0.15 |
| TCTTACACGTGAGTGT | 0.12 |
| GTGTGCACGTGATGAA | 0.04 |
| GTTGCCACGTGGGTGC | -0.14 |
| TATATCACGTGGAATC | 0.41 |
| CGGTTCACGTGAAGGG | 0.38 |
| GGGGCCACGTGTGTGC | 0.06 |
| TGGGGCACGTGTGCTG | -0.07 |
| GTGATCACGTGTGGCA | 0.32 |
| GTTATCACGTGTACTT | 0.13 |
| GGGGTCACGTGTCTTA | 0.17 |
| ATAAGCACGTGTTTAA | -0.18 |
| TCAATCACGTGTGGGT | 0.27 |
| TGAAGCACGTGAGGAT | 0.18 |
| ATCGGCACGTGGACGG | -0.11 |
| TTTTACACGTGCCTTT | 0.15 |
| AAGTGCACGTGGGCTT | -0.03 |
| CTTAGCACGTGAGGGA | 0.23 |
| ATTTGCACGTGCGTGC | -0.12 |
| TGAGGCACGTGTAGCA | -0.09 |
